The other results are listed elsewhere or left out. Further columns of the screen follow, without active or inactive calls. Most of these compounds were active or inconclusive in the main read-out, so they are no random draw.
biological target: Chromobox protein homolog 7 (Homo sapiens) (UniProt O95931); assay: CBX7 chromodomain binding inhibitors, primary screen, biochemical, AlphaScreen (AID 1224903); conditions: AlphaScreen His6-CBX7 / biotin-H3K27me3 peptide binding; measured here: z-score of CBX7 signal; stronger effect = lower value
Sequence of UniProt O95931 (O95931 whole entry, looked up): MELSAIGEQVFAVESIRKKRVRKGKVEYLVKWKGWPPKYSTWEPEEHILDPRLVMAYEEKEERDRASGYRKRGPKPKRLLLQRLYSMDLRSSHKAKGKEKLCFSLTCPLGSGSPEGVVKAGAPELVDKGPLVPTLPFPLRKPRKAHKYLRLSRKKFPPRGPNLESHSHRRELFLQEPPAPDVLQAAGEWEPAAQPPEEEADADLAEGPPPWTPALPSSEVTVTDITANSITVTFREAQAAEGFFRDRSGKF

Row | SMILES | z-score
1 | Cc1ccc([N+](=O)[O-])cc1-c1[nH]c(-c2ccccc2F)nc1-c1ccccc1 | -0.525
2 | CC1CC(C)CN(S(=O)(=O)c2ccc(C(=O)Nc3nnc(C4CC4)o3)cc2)C1 (stereo unspecified) | -2.61
3 | CCOC(=O)c1[nH]cnc1C(=O)Nc1ccc(OC)cc1 | -11.1
4 | CCc1cc(-c2[nH]ncc2-c2ccc3c(c2)OCCO3)c(O)cc1OC | -13.2
5 | O=C1C2=C(Nc3ccccc3SC2c2ccc3c(c2)OCO3)c2ccccc21 (stereo unspecified) | -10
6 | COc1ccc(-c2nnc(Nc3cccc(O)c3)c3ccccc23)cc1 | -10.7
7 | COc1ccc(-c2csc(Nc3ccc(Oc4ccccc4)cc3)n2)cc1Br | -13.5
8 | N#Cc1nc(COc2ccc(Br)cc2)oc1N1CCCCCC1 | -3.65
9 | CCCCN(CCCC)S(=O)(=O)c1ccc(C(=O)Nc2nnc(COC)o2)cc1 | -1.47
10 | CCCCN(CCCC)S(=O)(=O)c1ccc(C(=O)Nc2nnc(C3CC3)o2)cc1 | -1.66
11 | Cc1cccc(NCC(O)Cn2c(C)c(C)c3ccccc32)c1 (stereo unspecified) | -0.914
12 | COc1ccc(-c2noc(N(C)CC(=O)Nc3cc(C)on3)n2)cc1 | -34.3
13 | CCc1ccccc1NC(=O)c1cccc2c1C(=O)N(c1ccc(OC)cc1)C2 | -15.9
14 | CCCCN(C)S(=O)(=O)c1ccc(C(=O)Nc2nnc(CC)o2)cc1 | -17.2
15 | Cc1ccccc1OCc1nc(C#N)c(N2CCN(c3ccccc3)CC2)o1 | -7.35
16 | c1ccc(-c2nnc(-c3ccccn3)nc2-c2ccccc2)cc1 | -1.65
17 | Cc1cccc(C)c1Nc1c(-c2ccccn2)nc2ccccn12 | -19.3
18 | CNCC(=O)Nc1c2c(nc3c1CCC3)CCCC2 | -6.89
19 | O=C(Nc1nc(N2C(=O)c3ccccc3C2=O)n(-c2ccccc2)n1)c1ccc(F)cc1 | -9.76
20 | CCN(CC)c1ccc(Nc2nc(-c3c(C)nc4sccn34)cs2)cc1 | -17.8
21 | COc1ccc(OC)c(NC(=O)c2c(NCc3sccc3C)sc3c2CCCC3)c1 | -10
22 | O=C(CCN1C(=O)COc2ccccc21)NCc1ccccn1 | -12.2

Row | SMILES | z-score
23 | CCOC(=O)N1CCC(NC(=O)c2cccc3c2C(=O)N(c2ccc(OC)cc2)C3)CC1 | -8.18
24 | COc1ccccc1NC(CNS(=O)(=O)c1ccccc1)c1ccccc1 (stereo unspecified) | -7.68
25 | O=C(Nc1nnc(-c2ccccc2)o1)c1ccc(F)c(S(=O)(=O)N2CCOCC2)c1 | -8.44
26 | COc1ccccc1-n1cnc2cc(NCc3ccc(C(C)C)cc3)ccc21 | -5
27 | CCN(CCCNC(=O)c1cc(-c2ccncc2)nc2ccccc12)c1ccccc1 | -7.74
28 | COc1ccccc1Nc1cc(C(F)(F)F)nc2c(OC)ccc(OC)c12 | -7.6
29 | CCc1nnc(NC(=O)c2ccc(S(=O)(=O)N(C)C)cc2)o1 | -1.66
30 | Cc1nc2sccn2c1-c1csc(Nc2cccc(O)c2)n1 | -0.82
31 | CC(C)CC(=O)NC(c1cccs1)c1ccc2cccnc2c1O (stereo unspecified) | -3.16
32 | CCCCN(CC)S(=O)(=O)c1ccc(C(=O)Nc2nc(-c3ccccn3)cs2)cc1 | -17
33 | CCCCN(C)S(=O)(=O)c1ccc(C(=O)Nc2nnc(COC)o2)cc1 | -1.58
34 | COc1cccc(CNc2ccc3c(c2)ncn3-c2ccccc2)c1OC | -4.65
35 | c1ccc2c(-c3nc(C4CCCCC4)no3)cc(-c3ccncc3)nc2c1 | -6.55
36 | COc1ccc(Nc2c(-c3ccccn3)nc3ccc(C)cn23)cc1 | -27.7
37 | CCc1cc(-c2n[nH]c(C)c2Oc2ccccc2)c(O)cc1O | -9.19
38 | CCOC(=O)c1cnc2c(C)cccc2c1Nc1ccc(N(C)C)cc1 | -20.7
39 | Cc1cc(C)n(-c2nc3ccccc3nc2Nc2ccc(N(C)C)cc2)n1 | -9.41
40 | CCN(CCCNC(=O)CN1C(=O)COc2ccc(C(C)(C)C)cc21)c1cccc(C)c1 | -12.6
41 | CCOC(=O)c1cnc2ccc(OCC)cc2c1N1CCN(c2ccccc2F)CC1 | -0.936
42 | Cc1nnc(Nc2ccc(S(=O)(=O)Nc3nccs3)cc2)c2ccccc12 | -3.34
43 | COC(=O)c1c[nH]n2c(NC3CCCCC3)c(-c3ccc(OCCC(C)C)c(OC)c3)nc12 | -12.5
44 | COc1ccc(CNc2ccc3c(c2)ncn3-c2ccc(C)cc2)cc1 | -3.41

Row | SMILES | z-score
45 | COc1cc(-c2nc(-c3ccc(C)c(C)c3)c(-c3ccc(C)c(C)c3)[nH]2)cc(OC)c1O | -0.504
46 | CC1CCN(c2oc(COc3ccc(Cl)cc3)nc2C#N)CC1 | -4.02
47 | Cc1ccc(-c2nnc(Nc3cccc(O)c3)c3ccccc23)cc1S(=O)(=O)NC(C)(C)C | -11.3
48 | O=C(O)c1c[nH]c2ccc(S(=O)(=O)NCc3ccccn3)cc2c1=O | -13.1
49 | C=CCN(CC=C)S(=O)(=O)c1ccc(C(=O)Nc2nnc(-c3ccc(Cl)s3)o2)cc1 | -7.15
50 | CCOc1ccc2nc(N3CCCC(C(=O)N4CCN(c5cccc(C)c5)C(C)C4)C3)sc2c1 (stereo unspecified) | -13.7
51 | Cc1[nH]c2ccc(-c3nnc(SCCO)n3-c3ccc(Br)cc3)cc2c1C | -7.64
52 | CCCCn1cnc2cc(NCc3ccc(Br)cc3)ccc21 | -21.4
53 | CCC(=C(c1ccc(OC)cc1)c1ccc(OC)cc1)c1cn(CC(O)CN2CCCC2)c2ccccc12 (stereo unspecified) | -4.64
54 | Cc1cccc(OCCn2c(NC(=O)c3ccccc3Cl)nc3ccccc32)c1 | -7.08
55 | Cc1ccc(OCc2nc(C#N)c(N3CCN(c4ccccc4)CC3)o2)cc1 | -6.87
56 | N#Cc1nc(COc2cccc(Cl)c2)oc1N1CCCCCC1 | -3.45
57 | COc1ccc(C(NC(=O)CCc2ccccc2)c2ccc3cccnc3c2O)cc1 (stereo unspecified) | -3.23
58 | CC(=O)c1cccc(Nc2nc(-c3ccccn3)cs2)c1 | -12.3
59 | Cc1ccc2c(c1)Oc1cc([N+](=O)[O-])cc(Oc3ccc(Cl)cc3)c1C(=O)N2 | -14.5
60 | COc1cccc2c(S(=O)(=O)Nc3ccc(C(=O)O)cc3)ccnc12 | -12.8
61 | Cc1ccc2c(c1)Oc1cc([N+](=O)[O-])cc(Oc3ccccc3C)c1C(=O)N2 | -17.3
62 | CC(C)CC(=O)NC(c1ccccc1)c1ccc2cccnc2c1O (stereo unspecified) | -3.36
63 | O=C1Nc2ccccc2Oc2cc([N+](=O)[O-])cc(Oc3cccc(Cl)c3)c21 | -11.4
64 | Cc1ccc(-c2nnc(Nc3ccc(S(=O)(=O)Nc4nccs4)cc3)c3ccccc23)cc1 | -0.867
65 | CN(C)CCCN1C(=O)CCn2c(-c3ccccc3)c(-c3ccccc3)c3cccc1c32 | -7.9
66 | CCOc1ccc2nc(N3CCCC(C(=O)NCCCN4CCN(CC)CC4)C3)sc2c1 (stereo unspecified) | -10.6

From PubChem BioAssay AID1224903 (Bradner/Qi Labs at DFCI, 2016)
